# Source: the supplement of paper PMC3334620
# Over roughly 33,000 sequences, “E-score (-0.5 to 0.5)” has its median near -0.016; the highest 2% begin near 0.32. The list shows a part of the results.
# Molecular target: T1, Stp1 (UniProt B3LFK1)
# T1 sequence: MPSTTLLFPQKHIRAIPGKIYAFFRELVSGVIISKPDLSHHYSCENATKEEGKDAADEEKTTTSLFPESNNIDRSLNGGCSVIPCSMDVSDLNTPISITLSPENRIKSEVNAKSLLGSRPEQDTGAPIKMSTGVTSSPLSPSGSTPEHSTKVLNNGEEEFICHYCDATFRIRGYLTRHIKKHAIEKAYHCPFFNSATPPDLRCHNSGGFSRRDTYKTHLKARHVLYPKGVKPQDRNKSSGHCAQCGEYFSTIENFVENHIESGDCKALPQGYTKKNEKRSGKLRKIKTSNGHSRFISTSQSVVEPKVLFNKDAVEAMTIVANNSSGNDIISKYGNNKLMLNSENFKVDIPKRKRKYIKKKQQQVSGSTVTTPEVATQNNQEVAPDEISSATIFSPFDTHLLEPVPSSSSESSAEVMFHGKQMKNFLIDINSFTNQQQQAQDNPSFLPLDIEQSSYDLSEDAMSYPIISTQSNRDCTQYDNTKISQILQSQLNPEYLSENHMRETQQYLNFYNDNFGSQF
# Test: PBM E-score (8-mer binding enrichment) (E-score (-0.5 to 0.5)); higher = stronger / more preferred TF binding; most listed sequences are background and not binding sites
# Settings: protein concentration: 200 nM; construct: GST-full length
# How it was run: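 Masliner-normalised scans of fluorescent anti-GST signal were the basis for scoring. That signal came from GST-tagged yeast transcription factors applied at about 100-200 nM to double-stranded universal all-10-mer Agilent arrays on fresh or once-stripped slides. Each ungapped eight-base word, pooled with its reverse complement, received an E-score from the Universal PBM Analysis Suite.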
row,Sequence,PBM E-score
1,CCTAGCCC,-0.374
2,AAAGATGT,0.01
3,CGTTGATC,0.0467
4,AAACTACT,0.104
5,GACCGGTA,-0.386
6,AGGTTCAC,-0.0415
7,CGCGTGAG,0.26
8,AGCGAGCT,-0.0441
9,GAGTTCGC,-0.00842
10,CAATCTAA,-0.0297
11,AGTGTATA,-0.108
12,GCTAGTAA,0.0343
13,ACTCCAGG,-0.175
14,TTCGAGAA,-0.0268
15,ACCCACGC,-0.111
16,CACCTTGA,-0.107
17,CCACGTGG,-0.0863
18,AGACGCAC,-0.116
19,AGATCCTA,0.0297
20,CCTCGCCA,-0.171
21,GGCGGCTA,0.207
22,GTGGTCGA,-0.309
23,AACACGGG,0.116
24,GGGTCATA,-0.281

row,Sequence,PBM E-score
1,ACAAATCC,-0.00662
2,CCGTAAGC,-0.0535
3,AAGCAAGT,-0.0154
4,CATCTACA,0.00704
5,ATCCAAGC,-0.164
6,ATAGACTA,-0.0535
7,CCCACTAC,-0.0864
8,AAGACTAC,-0.246
9,GCATCAAA,0.222
10,GACTGGCC,-0.288
11,CCACGTGC,0.215
12,ACTCATGC,-0.00784
13,ACTCTTAA,-0.0998
14,ACACTCAC,0.0186
15,AACCTGCG,-0.0358
16,TAACGGCA,0.31
17,CCGAGTCG,-0.245
18,AAGTGGTG,-0.155
19,CAGCCAAA,0.17
20,CGCTTTCC,-0.108
21,ATTAGCGG,0.0139
22,AAATTGAG,0.00466
23,CGTTTAGC,0.112
24,GAGTACAC,0.00808

row,Sequence,PBM E-score
1,CTAGGTTA,0.00212
2,ACAGGTCT,-0.29
3,CATAAACA,0.186
4,GTGGAAAC,0.0392
5,CATCGGAA,0.0078
6,AGCTAATA,0.103
7,AATGCACA,0.182
8,AACCCTTG,-0.171
9,ATCAGGCG,-0.0222
10,ATAACCGC,0.112
11,ATGCCGCG,0.475
12,CTTTAGTC,-0.0205
13,GAGGTAGA,-0.255
14,CCTCATCG,-0.077
15,CGAATGCC,0.271
16,CTGTCAGC,-0.024
17,CGCAACCC,-0.1
18,ACTACTGG,-0.202
19,ATCGAGGG,-0.0625
20,GACTGGAC,-0.329
21,GCCAGTAC,-0.156
22,CTAGGGGC,-0.298
23,CTTAAACA,0.0992
24,CTAGACTA,-0.133

row,Sequence,PBM E-score
1,CCTGGCCA,-0.332
2,GCTAGAAC,-0.13
3,ATCGTCGA,-0.0508
4,AGGTCAAC,-0.197
5,GGGTGCAC,-0.181
6,CCAGATCA,0.102
7,CCTGGAAC,-0.248
8,ATAATACC,0.0966
9,GTCTCTCA,-0.00698
10,GATGCGGA,0.104
11,CGTCCGCC,0.0563
12,AAATGTTA,-0.0138
13,CAAATTAG,0.0851
14,GGTAATGA,-0.0239
15,GGCTGTAC,-0.0299
16,ATCGACCC,0.0335
17,GGGCTGCA,-0.257
18,AAGGATGG,-0.00811
19,CGAATGCG,0.0683
20,TAGTCGCA,-0.118
21,ACTGTCCC,-0.158
22,AAGAGGGC,-0.0547
